Data: publication PMC1363732
These are yes or no findings as the source states them, for the method shown. In cells and extracts the contact can be indirect. Some results given as binding are weak or reduced against the parent protein; the word gives no strength. Where a sequence is shown, tags or fusion partners need not be part of it.

Target: wild type HTLV-1 Tax (pCG-Tax) (HTLV-1) (UniProt P03409)
Assay: co-IP; HEK293T cells co-transfected with GST-SUV39H1 or GST and Tax; lysate in TNE buffer (10 mM Tris-HCl pH 7.8, 1% Nonidet P-40, 150 mM NaCl, 1 mM EDTA) immunoprecipitated with anti-Tax Lt-4; immunoblot with anti-SUV39H1 or anti-GST

B1: GST-tagged SUV39H1 (pMEG-SUV39H1) (enzyme, UniProt O43463 1-412)
chain: MAENLKGCSVCCKSSWNQLQDLCRLAKLSCPALGISKRNLYDFEVEYLCDYKKIREQEYYLVKWRGYPDSESTWEPRQNLKCVRILKQFHKDLERELLRRHHRSKTPRHLDPSLANYLVQKAKQRRALRRWEQELNAKRSHLGRITVENEVDLDGPPRAFVYINEYRVGEGITLNQVAVGCECQDCLWAPTGGCCPGASLHKFAYNDQGQVRLRAGLPIYECNSRCRCGYDCPNRVVQKGIRYDLCIFRTDDGRGWGVRTLEKIRKNSFVMEYVGEIITSEEAERRGQIYDRQGATYLFDLDYVEDVYTVDAAYYGNISHFVNHSCDPNLQVYNVFIDNLDERLPRIAFFATRTIRAGEELTFDYNMQVDPVDMESTRMDSNFGLAGLPGSPKKRVRIECKCGTESCRKYLF
- binding: binds
